# In the supplement of paper PMC9334596:
# Values joined by “and” are separate entries in the source; they are usually repeats but may differ in a detail not shown here. Equal entries are not always repeated. The full ranking holds about 5,300 compounds; the median of “PER2::LUC luminescence relative to vehicle control” is about 0.96, and the highest 2% start at about 1.3. Some of the results follow.
# Tested on: mPer2Luc MEF
# Test: PER2::LUC luminescence relative to vehicle control (fold of vehicle); higher = higher PER2::LUC reporter signal
# Conditions: 10 µM
# Outline: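 In 384-well plates, ~3000 mPer2Luc reporter mouse embryonic fibroblasts per well were cultured in DMEM with 10% FBS at 37 °C and 5% CO2 for 48 h before compounds from commercial libraries were added at 10 μM. ONE-Glo luciferase readings were taken 24 h and 30 h after treatment. Each value is PER2::LUC luminescence given as fold of vehicle control.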
SMILES,PER2::LUC luminescence (time after treatment 24 h),PER2::LUC luminescence (time after treatment 30 h)
C=CCn1c(=O)c2cnc(Nc3ccc(N4CCN(C)CC4)cc3)nc2n1-c1cccc(C(C)(C)O)n1,0.57,0.631
COc1c(O)c2c(=O)cc(OC)c3c4c(OC)cc(=O)c5c(O)c(OC)c6c(c(c1CC(C)=C6C(C)=O)c23)c54,0.779,0.948
Clc1ccc(C(Cn2ccnc2)OCc2csc3c(Cl)cccc23)c(Cl)c1 (stereo unspecified),1.13,1.12
CC(=O)OCC1=C(C(=O)O)N2C(=O)[C@@H](NC(=O)Cc3cccs3)[C@H]2SC1,1.14,1.13
CCCCCCCCCCCCCCCCCC(=O)NCC(COP(=O)([O-])OCC[N+](C)(C)C)OCC (racemic),0.966,1.03
CCN(CC)CCNC(=O)COc1ccc(OC)cc1,1.38,1.49
Cc1nc2n(c(=O)c1CCN1CCC(c3noc4cc(F)ccc34)CC1)CCCC2O (stereo unspecified),0.965,0.795
CC1(C)S[C@@H]2[C@H](NC(=O)Cc3ccccc3)C(=O)N2[C@H]1C(=O)O,1.06 and 1.17,1.72 and 0.949
CCCCc1nc(Cl)c(CO)n1Cc1ccc(-c2ccccc2-c2nnn[nH]2)cc1,1.04 and 0.621,0.92 and 0.992
COC(=O)C[C@H]1C(C)(C)[C@@H](OC(C)=O)[C@@H]2CC3C4CC(=O)O[C@@H](c5ccoc5)[C@]4(C)CCC3[C@@]1(C)C2=O (stereo partly specified),0.886,0.963
C=CCCCCCCCCC(=O)O,0.992 and 1.02,1.02 and 0.927
O=C(Nc1cccc2cccnc12)c1ccc(N2C(=O)[C@@H]3[C@H](C2=O)[C@@H]2C=C[C@H]3C2)cc1,1.01,0.982
COc1c(O)cc2oc3cc(O)c(CC=C(C)C)c(O)c3c(=O)c2c1CC=C(C)C,0.0883,0.17
CCOc1cc(N)c(Cl)cc1C(=O)NCC1CN(Cc2ccc(F)cc2)CCO1 (stereo unspecified),1.02,0.976
O=c1cc(-c2ccc(O)c(O[C@@H]3O[C@H](CO)[C@@H](O)[C@H](O)[C@H]3O)c2)oc2cc(O[C@@H]3O[C@H](CO)[C@@H](O)[C@H](O)[C@H]3O)cc(O)c12,1.07,1.04
Cc1cccc(Nc2ccccc2C(=O)O)c1C,0.741,1.01
COc1ccc(/C=C/C(=O)c2cc(O)ccc2O)cc1,0.754,0.827
CCC(C)n1ncn(-c2ccc(N3CCN(c4ccc(OCC5COC(Cn6cncn6)(c6ccc(Cl)cc6Cl)O5)cc4)CC3)cc2)c1=O (stereo unspecified),1.1,1.05
C[n+]1ccccc1/C=N/O,1.07 and 0.839,1.07 and 0.857
CN(C)CCNC(=O)c1cccn2c(=O)c3cc4ccccc4cc3nc12,0.72,0.519
O=C(O)CCNC(=O)c1ccc(/N=N/c2ccc(O)c(C(=O)O)c2)cc1,0.974 and 1.05,0.997 and 0.871
C[C@H]1[C@H](OC(=O)CCC(=O)O)O[C@@H]2O[C@@]3(C)CC[C@H]4[C@H](C)CC[C@@H]1[C@@]24OO3,0.43,0.509

SMILES,PER2::LUC luminescence (time after treatment 24 h),PER2::LUC luminescence (time after treatment 30 h)
CC(N)C(=O)OC(C)(C)Cc1ccc(Cl)cc1 (stereo unspecified),0.885 and 0.864,0.942 and 0.862
CC(C)Nc1nc2cc(Cl)c(Cl)cc2n1[C@H]1O[C@@H](CO)[C@H](O)[C@@H]1O,0.987,0.975
CN(CCOc1ccc(C[C@H](Nc2ccccc2C(=O)c2ccccc2)C(=O)O)cc1)c1ccccn1,1.01,1.07
C=CCSCC=C,1.02,1.03
Cc1ccc(-c2c(-c3nn(C)c4ncnc(N5CC[C@H](N6CCCCC6)C5)c34)cnn2C)cc1,0.974,1.06
Cc1ccsc1C(=CCCN1CCC[C@@H](C(=O)O)C1)c1sccc1C,1.09 and 1.11,1.06 and 1.04
CC[n+]1c(-c2ccccc2)c2cc(N)ccc2c2ccc(N)cc21,1.04 and 0.392,0.753 and 0.388
O=C1OC(CN2CCOCC2)CN1/N=C/c1ccc([N+](=O)[O-])o1 (stereo unspecified),0.868 and 0.678,1.2 and 0.716
O=C(CNc1ccc2ccccc2c1)N/N=C/c1cc(Br)c(O)c(Br)c1O,0.824,0.87
CC[C@H]1CN(c2nc(N)c(C(N)=O)nc2Cl)CCN1C1CCN(Cc2ccc(Cl)cc2)CC1,0.96,1.01
CC(C)(C(=O)NCC(F)(F)C(F)(F)F)C(=O)N[C@@H]1C(=O)Nc2ccccc2-c2ccccc21,0.878,0.845
O=C(O)[C@]1(O)C[C@@H](O)[C@@H](O)[C@H](O)C1,0.981,0.935
Cc1cc(C)c(CNC(=O)c2cc(-c3ccc(N4CCN(C)CC4)nc3)cc3c2c(C)cn3C(C)C)c(=O)[nH]1,0.757,0.841
CNCCCN1c2ccccc2CCc2ccccc21,0.586,0.551
Nc1nc(O)c2ncn(CCC(CO)CO)c2n1,1.03,0.846
Fc1ccc([C@@H]2CCNC[C@H]2COc2ccc3c(c2)OCO3)cc1,1.16 and 0.525,0.921 and 0.539
Nc1ccc(S(=O)(=O)NCCc2ccccc2)cc1,1.03,1
Cn1c(O)c(C2=c3ccccc3=NC2=O)c2ccccc21,0.163,0.127
O=c1[nH]cnc2c1ncn2[C@H]1CC[C@@H](CO)O1,0.976 and 0.97,0.956 and 0.774
CN(C/C=C/C#CC(C)(C)C)Cc1cccc2ccccc12,0.995 and 0.883,0.98 and 1.01
NCCC[C@H](N)CC(=O)N[C@H]1CNC(=O)[C@H]([C@H]2C[C@H](O)NC(N)=N2)NC(=O)/C(=C/NC(N)=O)NC(=O)[C@H](CO)NC(=O)[C@H](CO)NC1=O,1.11,0.978
